Source: PubChem BioAssay AID686971 (National Center for Advancing Translational Sciences (NCATS), 2013)
Out of some 360,000 compounds screened, about 7,500 (2.1%) were called active. The inconclusive results got no clear call from the source; some entries with a clear call stand among them for comparison. Calls follow the shape of the dose curve; as a rule, active = well fitted cell-killing curve with a large enough effect; inconclusive = small, poorly fitted or top-dose-only effect, or effect the other way, or another doubt; inactive = no such curve, though single readings can be large or run the other way. Potencies of inconclusive entries are left out as doubtful fits.

Experiment: qHTS for induction of synthetic lethality in tumor cells producing 2HG: qHTS for the HT-1080-IDH1KD cell line
Details: HT-1080 IDH1 knockdown viability, ATP luminescence, 48 h; series mostly up to 46.1 µM
In short: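 HT-1080-IDH1KD cells (IDH1 knocked down), 750/well in RPMI with 5% FBS, treated with compound 48 h at 37 degrees C. Viability by CellTiter-Glo luminescence, normalised to DMSO and no-cell wells; concentration-response curves classed.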
Potency is read from the fitted curve at half-maximal effect; tags tell the direction and shape of the fitted curve.

Compound | Potency
COc1ccccc1C(=O)N1CCN(c2cccc(Cl)c2)CC1 | active: 2.59 µM
COc1ccc(-c2sc3cc(OC)c(OC)cc3c2C#CCCO)cc1 | inconclusive [cytotoxic, single point]
COCCCNC(=S)Nc1cc2oc3ccccc3c2cc1OC | active: 11.6 µM
Cc1ccc(CSc2nnc3c(n2)OC2(Nc4ccccc4-3)C(=O)Nc3ccc(F)cc32)cc1 (stereo unspecified) | inconclusive [cytotoxic, single point]
CCN(CC)C(=O)c1[nH]cnc1C(=O)N[C@@H](C)C(=O)OCc1ccccc1 | inactive
Cc1ccc(-n2ncc3c2CCCC3NC(=O)c2ccoc2)cc1C (stereo unspecified) | inactive
CCN(CC)c1ccc(NC(=O)c2ccc(=O)[nH]c2)cc1S(=O)(=O)Nc1ccc(OC)cc1 | inconclusive [cytotoxic, single point]
COc1ccc(CN2CCN(C(=O)c3ccc(S(=O)(=O)N4CCCCCC4)cc3)CC2)cc1F | inactive
CCc1ccc(N=c2c([N+](=O)[O-])nn(-c3ccccc3)n2O)cc1 | inconclusive [cytotoxic, single point]
Cc1cc(NC(=S)NC(=O)CC(C)C)ccc1Br | inconclusive [cytotoxic, single point]
COC(=O)c1ccc(Cn2nc(-c3cc(C)ccc3C)ccc2=O)cc1 | inactive
CN1CCN(CCc2nc3cc(NC(=O)COc4ccc(Cl)cc4)ccc3n2C)CC1 | inconclusive [cytotoxic, single point]
CCOc1cc(CNC(C)(C)CO)cc(Br)c1OCc1ccc(Cl)cc1Cl | active: 10 µM
COc1ccc(C(C)NC(=S)NCc2ccc(F)cc2)cc1 (stereo unspecified) | inactive
CCCCCCCCCCCCCC(=O)NO | inconclusive [cytotoxic, single point]
CCOC(=O)[C@]12CCC=C1N(Cc1ccc3c(c1)OCO3)C(=O)[C@H](CC(=O)NCc1cccc(C(F)(F)F)c1)C2 | inconclusive [cytotoxic, single point]
CCCn1c(SCC(=O)Nc2ccccc2OC)nnc1-c1ccco1 | active: 18.4 µM
N#C/C(=C\c1ccc(O)cc1)C(=O)N1CCCC1 | inactive
O=S(Cc1cc(Sc2ccccc2)nc(-c2ccccc2)n1)c1ccccc1 (stereo unspecified) | inconclusive [cytotoxic, single point]
c1ccc(Cn2nnnc2C(c2cccs2)N2CCc3ccccc3C2)cc1 (stereo unspecified) | inconclusive [cytotoxic, single point]
O=c1ncn(-c2ccccc2F)c2ncccc12 | inactive
